Experimental data from PMC12146697.
No constants are given. Whether binding was seen depends on the method and setting. For some assays here: Binding seen in cells or lysates may run through a third protein. Some entries that bind do so weakly or less than the wild type. Tags and fused reporters may be left off the sequences shown. Each block holds one molecule with its values, some of them ahead of it.

Sequences of proteins named here, by UniProt entry; tags and fusion partners are left off. A change or cut given only in a name is not applied to a line headed by its entry.
UniProt P50516: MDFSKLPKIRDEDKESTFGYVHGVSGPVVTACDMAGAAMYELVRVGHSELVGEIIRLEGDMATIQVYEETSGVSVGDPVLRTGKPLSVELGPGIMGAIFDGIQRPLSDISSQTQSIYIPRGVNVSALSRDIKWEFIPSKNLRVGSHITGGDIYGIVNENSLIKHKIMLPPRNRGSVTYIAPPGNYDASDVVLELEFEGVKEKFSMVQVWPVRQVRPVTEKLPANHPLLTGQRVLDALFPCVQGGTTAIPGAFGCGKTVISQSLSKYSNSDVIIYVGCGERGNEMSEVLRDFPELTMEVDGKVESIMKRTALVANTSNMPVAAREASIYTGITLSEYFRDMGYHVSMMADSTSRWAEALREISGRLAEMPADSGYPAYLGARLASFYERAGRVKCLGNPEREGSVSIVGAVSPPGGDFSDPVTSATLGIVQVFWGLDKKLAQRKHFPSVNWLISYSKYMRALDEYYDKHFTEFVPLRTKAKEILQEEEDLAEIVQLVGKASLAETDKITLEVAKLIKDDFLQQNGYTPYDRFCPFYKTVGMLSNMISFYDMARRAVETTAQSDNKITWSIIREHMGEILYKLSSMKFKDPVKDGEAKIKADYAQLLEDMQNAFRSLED
UniProt P20340: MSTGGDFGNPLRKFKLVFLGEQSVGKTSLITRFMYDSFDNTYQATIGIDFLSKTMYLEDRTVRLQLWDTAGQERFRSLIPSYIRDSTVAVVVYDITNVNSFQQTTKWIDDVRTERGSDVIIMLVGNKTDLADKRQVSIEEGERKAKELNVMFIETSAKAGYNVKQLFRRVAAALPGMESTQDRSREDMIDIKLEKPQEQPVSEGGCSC
UniProt P61026: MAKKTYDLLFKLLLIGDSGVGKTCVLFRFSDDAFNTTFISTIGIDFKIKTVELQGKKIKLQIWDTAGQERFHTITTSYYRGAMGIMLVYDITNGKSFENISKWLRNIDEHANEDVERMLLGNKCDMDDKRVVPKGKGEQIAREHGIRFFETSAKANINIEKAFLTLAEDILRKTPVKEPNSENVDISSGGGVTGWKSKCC
UniProt Q9WTT4: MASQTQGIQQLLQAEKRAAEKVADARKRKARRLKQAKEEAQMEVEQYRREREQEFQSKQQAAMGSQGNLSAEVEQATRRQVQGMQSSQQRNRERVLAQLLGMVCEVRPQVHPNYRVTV

Key:
[1] = target: T1, GST-Oxr1 full-length (FL) (Mus musculus) (UniProt Q4KMM3); experiment: pull-down; 10 ug GST-fused Oxr1 protein on glutathione-Sepharose, mouse brain lysed in RIPA buffer (to dissociate the V-ATPase subunits) and diluted 1:50 in NL100, 1 mg protein, 1 h, 4 °C; immunoblot for V1 subunits; only the target purified
T1 sequence: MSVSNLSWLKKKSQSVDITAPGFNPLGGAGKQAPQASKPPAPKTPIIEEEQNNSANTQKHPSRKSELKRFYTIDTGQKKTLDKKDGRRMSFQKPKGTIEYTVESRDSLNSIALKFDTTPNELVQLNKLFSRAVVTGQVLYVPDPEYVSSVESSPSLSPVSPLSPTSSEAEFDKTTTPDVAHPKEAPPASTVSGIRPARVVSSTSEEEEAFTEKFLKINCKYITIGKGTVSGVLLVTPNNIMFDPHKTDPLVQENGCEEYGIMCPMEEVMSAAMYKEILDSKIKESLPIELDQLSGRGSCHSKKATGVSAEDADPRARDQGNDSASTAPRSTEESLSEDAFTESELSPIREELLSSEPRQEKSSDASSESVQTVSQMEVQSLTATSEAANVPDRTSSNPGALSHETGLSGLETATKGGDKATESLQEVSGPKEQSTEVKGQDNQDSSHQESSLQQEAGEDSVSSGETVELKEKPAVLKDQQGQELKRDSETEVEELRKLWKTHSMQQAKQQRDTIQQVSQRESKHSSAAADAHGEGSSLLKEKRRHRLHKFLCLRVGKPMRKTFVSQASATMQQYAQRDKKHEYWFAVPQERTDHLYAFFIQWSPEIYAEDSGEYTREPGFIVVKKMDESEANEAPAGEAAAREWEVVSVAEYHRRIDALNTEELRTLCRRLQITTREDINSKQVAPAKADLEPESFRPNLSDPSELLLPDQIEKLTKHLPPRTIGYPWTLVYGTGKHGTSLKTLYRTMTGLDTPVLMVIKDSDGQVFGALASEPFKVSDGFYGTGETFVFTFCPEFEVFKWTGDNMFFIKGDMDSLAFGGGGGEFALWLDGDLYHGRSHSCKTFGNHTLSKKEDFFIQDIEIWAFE

[2] = target: T2, GST-Oxr1-TLDc (Mus musculus) (UniProt Q4KMM3); experiment: as above
T2 sequence: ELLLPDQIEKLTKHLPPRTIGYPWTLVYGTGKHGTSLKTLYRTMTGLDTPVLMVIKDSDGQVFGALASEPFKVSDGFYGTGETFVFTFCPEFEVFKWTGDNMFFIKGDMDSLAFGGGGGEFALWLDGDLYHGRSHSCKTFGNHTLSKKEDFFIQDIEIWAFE

[3] = target: FLAG-tagged ATP6V1A (Mus musculus) (UniProt P50516); experiment: pull-down; FLAG-ATP6V1A on FLAG M2 agarose, stripped of nucleotide, incubated with GST-TLDc proteins in NL100 with 100 uM ADP, 1 h, 4 °C; immunoblot with anti-GST; both purified
[4] = target: FLAG-tagged ATP6V1A (Mus musculus) (UniProt P50516); experiment: pull-down; FLAG-ATP6V1A on FLAG M2 agarose, stripped of nucleotide, incubated with GST-TLDc proteins in NL100 with 100 uM AMP-PNP, 1 h, 4 °C; immunoblot with anti-GST; both purified
[5] = target: FLAG-tagged ATP6V1A (Mus musculus) (UniProt P50516); experiment: pull-down; FLAG-ATP6V1A on FLAG M2 agarose, nucleotide-free (washed with NE500: 500 mM NaCl, 20 mM EDTA), incubated with GST-TLDc proteins in NL100, 1 h, 4 °C; immunoblot with anti-GST; both purified
[6] = target: GST-fused GDP-bound Rab6a T27N (UniProt P20340); experiment: pull-down; 1 ug His6-tagged Oxr1 with 5 ug immobilised GST-fused Rab6 (GDP-loaded T27N, GTP-loaded Q72A or GTP-loaded WT) in NL100 buffer, 1 h, 4 °C; immunoblot with anti-Oxr1; both purified
[7] = target: GST-fused GTP-bound Rab6a Q72A (UniProt P20340); experiment: as above
[8] = target: GST-fused GTP-bound Rab6a WT (UniProt P20340); experiment: as above
[9] = target: Rab10 WT (Gal4-BD, pFBT9) (UniProt P61026); experiment: two-hybrid; Gal4-AD (pACT2-Oxr1) with Gal4-BD (pFBT9-Rab) in strain PJ96-4A; growth on SC-LW and QDO, 3 d, 30 °C
[10] = target: T3, Rab19b WT (Gal4-BD, pFBT9) (UniProt A4D1S5); experiment: as above
T3 sequence: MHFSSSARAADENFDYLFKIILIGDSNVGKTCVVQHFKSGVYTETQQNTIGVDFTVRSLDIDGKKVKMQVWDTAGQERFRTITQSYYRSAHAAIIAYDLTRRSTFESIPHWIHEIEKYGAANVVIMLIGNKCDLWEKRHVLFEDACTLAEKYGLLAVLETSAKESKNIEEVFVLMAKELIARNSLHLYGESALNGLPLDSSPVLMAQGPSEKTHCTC

[11] = target: T4, Rab39a WT (Gal4-BD, pFBT9) (UniProt Q14964); experiment: as above
T4 sequence: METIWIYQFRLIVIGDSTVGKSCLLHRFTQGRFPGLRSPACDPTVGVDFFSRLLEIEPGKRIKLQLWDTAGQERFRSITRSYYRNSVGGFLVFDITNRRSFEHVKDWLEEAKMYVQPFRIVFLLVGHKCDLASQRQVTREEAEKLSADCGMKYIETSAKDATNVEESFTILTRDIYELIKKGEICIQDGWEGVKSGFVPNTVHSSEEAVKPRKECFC

[12] = target: T5, Rab43 WT (Gal4-BD, pFBT9) (UniProt Q86YS6); experiment: as above
T5 sequence: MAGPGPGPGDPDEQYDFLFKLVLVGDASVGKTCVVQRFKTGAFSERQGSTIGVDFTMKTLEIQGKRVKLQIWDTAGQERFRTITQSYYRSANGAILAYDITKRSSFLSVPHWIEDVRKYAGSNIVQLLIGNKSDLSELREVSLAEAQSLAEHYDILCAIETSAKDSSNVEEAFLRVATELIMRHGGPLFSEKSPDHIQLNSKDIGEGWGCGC

[13] = target: Rab6 WT (Gal4-BD, pFBT9) (UniProt P20340); experiment: as above

Molecule: ATP6V1G2 (endogenous, mouse brain) (from UniProt Q9WTT4 1-118)
- binding [1]: no binding

B3: His6-tagged Oxr1 (full-length) (protein, UniProt Q4KMM3-1 1-866)
chain: T1 sequence
- binding [6]: no binding
- binding [7]: binds
- binding [8]: binds

B4: Gal4-AD Oxr1 (pACT2-Oxr1) (protein, UniProt Q4KMM3-1 1-866)
chain: T1 sequence
- binding [9]: binds weakly
- binding [10]: binds weakly
- binding [11]: binds weakly
- binding [12]: binds weakly
- binding [13]: binds weakly

Now from value to molecule, other results behind:

- binding [1]: binds
- binding [2]: binds
Molecule: ATP6V1A (endogenous, mouse brain) (from UniProt P50516 1-617)

- binding [4]: binds
B1: GST-Oxr1-TLDc (domain or fragment, UniProt Q4KMM3-1 705-866)
chain: T2 sequence
- binding [3]: no binding (condition: ATP6V1A loaded with 100 µM ADP)
- binding [5]: no binding (condition: nucleotide-free ATP6V1A)

- binding [4]: binds
B2: GST-Ncoa7 TLDc (domain or fragment, UniProt Q6DFV7-1 782-943)
chain: ALLENMHIEQLARRLPARVQGYPWRLAYSTLEHGTSLKTLYRKSASLDSPVLLVIKDMDNQIFGAYATHPFKFSDHYYGTGETFLYTFSPNFKVFKWSGENSYFINGDISSLELGGGGGRFGLWLDADLYHGRSNSCSTFNNDILSKKEDFIVQDLEVWTFE
- binding [3]: no binding (condition: ATP6V1A loaded with 100 µM ADP)
- binding [5]: no binding (condition: nucleotide-free ATP6V1A)
